# From PubChem BioAssay AID1814 (Broad Institute, 2009)
# Hit rate of the full screen: of about 300,000 compounds, about 22,000 (7.3%) were called active. Inconclusive results, whose numbers are uncertain, are shown with a selection of clear calls. Cut-off read from the data, not from the text of the source: active = activity score below about -60%; inconclusive = mostly about -28% to -61%; inactive = positive scores.
# Experiment: Activators via SNCA 5'UTR binding, MLPCN (AID 1814)
# Settings: alpha-synuclein 5'UTR reporter, activators screen; stronger effect = lower value; tested at 7.5 µM
row,SMILES,activity score
1,C[C@H](CCC(=O)NCC(=O)O)[C@H]1CC[C@H]2[C@@H]3[C@H](O)C[C@@H]4C[C@H](O)CC[C@]4(C)[C@H]3C[C@H](O)[C@]12C,inconclusive: -34.8%
2,O=C(Nc1nc2ccccc2s1)C1=NN(c2ccccc2)C(=O)CC1,inconclusive: -46.1%
3,CN(C1=C(N2CCOCC2)C(=O)c2ccccc2C1=O)c1ccccc1,inactive: 39.1%
4,CN(C)c1cnn(-c2ccccc2)c(=O)c1Cl,inconclusive: -58.3%
5,O=C(NCc1ccc2c(c1)OCO2)c1ccccc1Cl,active: -99.6%
6,Fc1cc(Br)ccc1NC(=S)Nc1ccccc1,active: -115%
7,CN(C)c1ccc(/C=N/NC(=O)c2ccccc2Cl)cc1,active: -125%
8,CCN(CC)c1ccc(/C=N/N=C(N)N)c(O)c1,inactive: 86.9%
9,CCOC(=O)C1CCN(S(=O)(=O)c2ccc(-c3nc4ccccc4s3)s2)CC1,inconclusive: -61.3%
10,Cc1ccc(/C=C2/SC(=S)N(CCCC(=O)Nc3ccc(O)cc3)C2=O)cc1,inactive: 86.3%
11,OCc1ccc(O)c2ncccc12,inactive: 65.6%
12,C/C(=N\NC(=O)c1ccccc1C)c1ccc(NC(=O)c2cccs2)cc1,active: -148%
13,Cc1snc(SCC(=O)c2ccc(F)cc2)c1C#N,active: -124%
14,O=C(Nc1ccccc1F)C1CC1c1ccccc1 (centres undefined),inconclusive: -36.6%
15,COc1ccc2nc(NC(=O)c3ccccc3[N+](=O)[O-])sc2c1,inconclusive: -56.8%
16,CCCOc1ccc(/C=N/NC(=S)Nc2ccccc2[N+](=O)[O-])c(O)c1,inactive: 101%
17,O=C(COc1ccc2ccc(=O)oc2c1)Nc1ccc2c(c1)OCCO2,inconclusive: -32.4%
18,O=C(N/N=C/c1sc(N2CCOCC2)nc1-c1ccccc1)c1cccc(S(=O)(=O)N2CCCC2)c1,inactive: 98.9%
19,N/C(=N\OC(=O)c1ccc2c(c1)OCO2)c1cccc([N+](=O)[O-])c1,active: -133%
20,O=C(Nc1ccc(S(=O)(=O)N2CCOCC2)cc1)c1ccc([N+](=O)[O-])o1,active: -120%

row,SMILES,activity score
1,O=C(N/N=C/c1ccc(O)cc1)c1cc(-c2ccc3c(c2)OCO3)n[nH]1,inconclusive: -60.3%
2,CC[C@@H](C)[C@H](CNC)NC[C@@H](Cc1cccc2ccccc12)NCCc1cccc(C(F)(F)F)c1,inactive: 125%
3,C/C(N)=C(/C#N)C(=O)CSc1nnc(NC(C)C)s1,inconclusive: -58.8%
4,CCOC(=O)c1cnn(-c2ncnc3c2cnn3C)c1N,active: -93.8%
5,Cc1ccc(C(=O)CCNc2ccc(Cl)cc2)o1,inconclusive: -61.3%
6,C=CCOc1ccc2c(OC)c3ccoc3nc2c1OC,active: -81.1%
7,Cc1cccc(NC(=O)C2C3CCCCC32)c1 (centres undefined),active: -117%
8,Cn1c(-c2ccccc2)cccc1=O,inconclusive: -57%
9,COc1ccc(NC(=O)Nc2cccc([N+](=O)[O-])c2)cc1Cl,inconclusive: -57.7%
10,CC(C)(C)C(O)/C=C/c1ccc2c(c1)OCO2 (centres undefined),inconclusive: -35.3%
11,O=C(CSc1nnc(-c2ccccc2)o1)Nc1ccccc1F,inactive: 73.7%
12,Cc1ccc(-n2ncc(C(=O)Nc3cc(Cl)cc(Cl)c3)c2C2CCNCC2)cc1C,inactive: 92.9%
13,Cc1nc(Sc2ccc(Cl)cc2)c(C#N)c(C)c1[N+](=O)[O-],inconclusive: -59.9%
14,CC[C@]1(O)C[C@@H]2CN(CCc3c([nH]c4ccccc34)[C@@](C(=O)OC)(c3cc4c(cc3OC)N(C)[C@H]3[C@@](O)(C(=O)OC)[C@H](OC(C)=O)[C@]5(CC)C=CCN6CC[C@]43[C@@H]65)C2)C1,inactive: 77.2%
15,Fc1ccc(-n2nnc(-c3cccnc3Cl)n2)cc1,active: -86.4%
16,Cc1cccc(NC(=O)c2onc3c2CCCC3)n1,inactive: 85.8%
17,COc1cc(C(=O)O/N=C(\N)Cc2ccc([N+](=O)[O-])cc2)cc(OC)c1OC,inactive: 81.1%
18,CC(CN1CCOCC1)OC(=O)/C=C/c1ccccc1 (centres undefined),inconclusive: -41.2%
19,O=C(CSc1ccccn1)Nc1nc2ccc(Br)cc2s1,inconclusive: -49.8%
20,Nc1nn(-c2ccccc2)c(N)c1N=Nc1cccc(F)c1,inconclusive: -57.2%

row,SMILES,activity score
1,CSc1ccc(/C=N/NC(=O)c2ccccc2Cl)cc1,active: -109%
2,CCCCc1ccc(NC(=S)Nc2cccnc2)cc1,inconclusive: -59.8%
3,O=C(NNc1nc2ccccc2s1)c1ccc(F)cc1,inconclusive: -46.2%
4,O=C(Nc1ccccc1)N1CCN(c2ccc(F)cc2)CC1,inconclusive: -60.7%
5,CNS(=O)(=O)c1ccc(NC(=O)c2ccoc2C)cc1,inconclusive: -24.7%
6,COc1ccc2c(C)cc(N3CCN(c4ccc(F)cc4)CC3)nc2c1,inconclusive: -60.1%
7,Cn1cnnc1SCC(=O)Nc1ccc(OCc2ccccc2)cc1,inconclusive: -39.9%
8,CCc1ccc(/C=C2\SC(=S)N(CCC(=O)Nc3cc(C)on3)C2=O)cc1,inactive: 68.8%
9,CCc1c(C)sc(NC(=O)c2cc(C3CC3)on2)c1C#N,inconclusive: -26.8%
10,C[C@@H](NC(=O)c1coc(=O)c(Br)c1)c1ccccc1,inconclusive: -60.3%
11,COc1cc(C(C)=O)ccc1OCc1nnc(-c2ccccc2Br)o1,inconclusive: -60.2%
12,CCOc1ccc(N2C(=O)S/C(=C\c3ccc(O)c(OC)c3)C2=O)cc1,inconclusive: -53.5%
13,COC(=O)c1sc(NC(=O)c2ccc(OC)cc2OC)nc1C,inactive: 101%
14,CC(=O)Oc1ccc(-c2csc(Nc3cccnc3)n2)cc1,inconclusive: -55%
15,CSc1ccccc1NC(=O)c1ccc(C)o1,inconclusive: -55.4%
16,CC(=O)c1c(C)oc2ccc(N(C(C)=O)S(=O)(=O)c3ccc(Cl)c([N+](=O)[O-])c3)cc12,inactive: 112%
17,COC(=O)c1cccc(Nc2ncnc3sccc23)c1,inconclusive: -57.4%
18,Cc1c(C(=O)Oc2cccc3ccccc23)cnn1-c1ccccc1,active: -65.2%
19,O=C(/C=C\c1ccc(-c2cccc([N+](=O)[O-])c2)o1)N1CCOCC1,inconclusive: -49.7%
